From article PMC10726135
Some of the results follow. At the low end of the ranking the order means little. The protein was read in a cell extract, so binding may be indirect.

Molecular target: T1, HNF4alpha8 (COS-7 nuclear extract) (UniProt P41235-5)
T1 sequence: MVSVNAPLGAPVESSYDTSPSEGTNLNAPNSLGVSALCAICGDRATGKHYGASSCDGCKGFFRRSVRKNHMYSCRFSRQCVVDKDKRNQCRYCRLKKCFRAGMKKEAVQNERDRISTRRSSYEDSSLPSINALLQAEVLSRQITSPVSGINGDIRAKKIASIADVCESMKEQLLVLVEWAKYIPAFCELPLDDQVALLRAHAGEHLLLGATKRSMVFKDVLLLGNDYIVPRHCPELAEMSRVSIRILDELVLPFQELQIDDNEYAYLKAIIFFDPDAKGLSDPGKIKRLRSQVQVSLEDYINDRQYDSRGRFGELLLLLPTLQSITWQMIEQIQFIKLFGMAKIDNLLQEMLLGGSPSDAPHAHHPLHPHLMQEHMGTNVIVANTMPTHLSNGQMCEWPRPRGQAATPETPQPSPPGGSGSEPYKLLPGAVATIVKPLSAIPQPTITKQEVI
Assay: protein-binding microarray
Conditions: COS-7 nuclear extract on double-stranded Agilent 4x180k PBM; binding buffer, salt, pH and temperature not given; high values mean tight binding; double strand, one strand shown; sequences stand for … in …GCCTAGGGAGATTAGAGTATCGGTCGA

Row | Sequence | binding signal (log2 normalized intensity)
1 | TGATATTGTGAAATATATATTTGCTCTTCA | 1.27
2 | CATTCAGCACCAGGGATAGCGCCCACACTG | -1.29
3 | GACTTTAACCCCCTTGTCTTCCTCAAATTA | 2.74
4 | AATTCCTTTCAAACTGTATTGCTCAATGTC | 0.181
5 | GCTTATGTTTGCAAGTCGAGCAAGGTTCAG | 2.45
6 | GCTGATCCTATTTACCTGCCTGTGCTGTGG | 1.23
7 | AAGGTTGCAGAGTGTCCCACTTCAGGCAGG | -1.27
8 | AAAACAGCATGCGGTAAAGAAGCCAGCCAA | -1.05
9 | CCTTATCAGCGGCCCTGTGCTGCCCCCGAT | 4.76
10 | TTCTTCTGCTTCCCTAGGGAGGTGATTGGT | 1.08
11 | AAGAGTGAATTCTGCAGCAGATGGCCAGCC | -1.34
12 | CAACATAGTGATTTAGGCTTTTGGGCCCTG | 0.116
13 | CAGTATACTGACTTATCAGGGTTATTTGCT | -1.31
14 | CTGTCTAGGCCAGAGTTCACTTTCCTCTCA | 1.58
15 | AGATAGGACAGTGGTCTTTATGACTTGGGT | 1.4
16 | TAAAGTCCAAATTCCTTGGAATACATGGAA | 2.17
17 | GTCTTACTAAATGCAGCCTTGGGCAAGTTA | -1.09
18 | TTGGGCCCTGTCTGATAAGGGTGTTTGTCC | 1.45
19 | TCAGTATGAATGCCTTGGCCTCTGCAGACA | -0.716
20 | AGACACACTCAGGCACTGGGATCCAAAGTT | -1.31
21 | ATAAAGTGATTAGTGCAAGAATCCAAGAAT | -1.4
22 | GTTGTCTGATGGCTGCTTCACACAAACATC | -1.31
23 | CTCCCTGAAGAAACAGTCTTTGCTTTTTGA | 0.788
24 | CCAGATAAGACTATCTCATGACAGACCTAA | -1.43

Row | Sequence | binding signal (log2 normalized intensity)
25 | TTGAACTGCTGGGGGTAAAGTGGATTGCTG | 0.866
26 | TCTCCTCTGCCACTGTATCAGGGAGATAGT | -1.07
27 | GCAGAATTTCTTTTAATGTGTGCTTTCAGG | 1.46
28 | AGCCTGTGGCCAGGCTGCGTTTCAAAGCCA | -1.4
29 | CAACATTGTCCAGCAGACACGGGCAGGTGA | -1.36
30 | CCAGACAGGAGGATTCCTGATGCGTTCAAG | -1.24
31 | GGTATGGATTCTGGGACCCACCCACCTATG | 0.692
32 | CCCTTCGCTCCCCGACCTCCTGCTGCAGCT | 2.08
33 | AGAAGAAAGCCCTTTTTGGAATGTGTTTGC | 1.61
34 | ACAGCAACTCAGGCAACAATGCCTTGTGTA | -1.29
35 | GATTCTTACAGGCAATTGATAATGATGTTT | 0.983
36 | ACTGCATTCCCTTTCTCCTCCCCTCCCCTC | 4.48
37 | TTGGAGTTGAGGTCAGACATGGCTGTATGT | 1.43
38 | GTCTAATTGTGCTGAGAGAGTCCTTGTTTG | 1.67
39 | TGGATGTTTCCTTTGAACTCTGCATCCAGG | 2.52
40 | TAGCAATAATCTTTGAAATCTGCAAATAGA | -0.888
41 | AGTGTGTAAGTATGCTCACTGACCTCTGCC | 3.94
42 | CAGTAGTTCTCCTTTCTGCCCTTTGAAGCA | 3.18
43 | AGGAACTTGTTGGTAACCGGAGCAAAGGTT | 3.78
44 | ACAAATGAAAGAGCTCAAATGACAGAACAG | -1.35
45 | GAAAAAAGCCAATCTCTCAAATCTAGCCAA | -1.33
46 | TTGGTGTAACTCTGGGTCTGAGACCAAAGT | 2.02
47 | AGGGAAAAAATAATCAGCTTAAGCATACAG | -1.14
48 | GGTCTGTAGAAGGCGCTGTGAAGCACATCC | -1.27

Row | Sequence | binding signal (log2 normalized intensity)
49 | ATTCTTAGACACAGTCTGAGATAGAAGGTC | 1.46
50 | ACAACATTGAAAGCGATCTTTGCATTCCCA | 0.796
51 | TGGGAGAGCACTTGGTGCCTCTGAGCTAAG | -1.34
52 | CTGAATCCAAAGGTCAATGCCAGGACCCTG | 5.08
53 | GGAGTTTCCTGCCTGGTCCGCCCTTCCCCG | 2.16
54 | GAACTGACAAGCAGTGACCAAGGGTCAGTT | 4.44
55 | GGGGCGGGGGTTGCAAGTCTGAGGCTGCTC | -1.31
56 | ATCCCCAGCCACGCTCCTCTTATCATTAGA | 0.793
57 | AGCCGGCCTCTTAACAGATGAGGACATTTC | -1.21
58 | TCTGGACTTGGATCAGCCTGATTGAGTTCA | 0.925
59 | TTCACTAGACCTAGATAAGGGAGATGAAAG | -1.35
60 | TGCTCTCTCATGCCCTTTGCCTCCCTGCAT | 3.97
61 | GGGGAAAGTCCACGTGAGAGGGTCGTGATC | 1.92
62 | TAGGGGGATTCTGGCTAAACCAGCCTAACA | -1.17
63 | AACACAGAACTAGCCAGACCTGTTCCTCTG | -1.18
64 | CTAGGGGAAACTGCTTTGGTTAATCATTAG | -0.655
65 | TTCAGATGCAACACAGGGGGAGGAATGCTG | -1.33
66 | GGAAATCATCAGCACATTGGTGAGAATGGA | 0.391
67 | CCACTCAGTCTCTTGAAATCCCAAGCAGTG | -1.22
68 | TCCGCATCCTCAAGAAACACAGAACTATCA | -1.29
69 | GGCTGGAGAGGAGGTTATCTCGGGGCTGGC | -1.13
70 | GAAGTTCTAGGAGCCTGGACATTTGCCACC | 0.908
71 | GGTTAATTCACATCTCCAGTTCCAAAGTCC | 6.39
72 | GACCTTTGGACAGGGTGACGTCATTGGAAA | 6.22
